# The whole screen tested about 110,000 compounds, of which about 230 (0.21%) showed an effect of 50% or more. The list shows a part of the results. Where a SMILES comes first, the peptide text is derived from it.
# Biological target: DPAP1 (Plasmodium falciparum, UniProt Q8IIJ9)
# Experiment: primary screen, percent inhibition; read by cleavage of a fluorogenic dipeptide substrate; higher = more effect of the substance
# Parameters: species or system P. falciparum D10 trophozoite lysates; single well
# 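Also: 30 min substrate incubation versus DMSO and 10 µM JCP410 controls.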
# Chain of DPAP1 (Q8IIJ9 whole entry, looked up): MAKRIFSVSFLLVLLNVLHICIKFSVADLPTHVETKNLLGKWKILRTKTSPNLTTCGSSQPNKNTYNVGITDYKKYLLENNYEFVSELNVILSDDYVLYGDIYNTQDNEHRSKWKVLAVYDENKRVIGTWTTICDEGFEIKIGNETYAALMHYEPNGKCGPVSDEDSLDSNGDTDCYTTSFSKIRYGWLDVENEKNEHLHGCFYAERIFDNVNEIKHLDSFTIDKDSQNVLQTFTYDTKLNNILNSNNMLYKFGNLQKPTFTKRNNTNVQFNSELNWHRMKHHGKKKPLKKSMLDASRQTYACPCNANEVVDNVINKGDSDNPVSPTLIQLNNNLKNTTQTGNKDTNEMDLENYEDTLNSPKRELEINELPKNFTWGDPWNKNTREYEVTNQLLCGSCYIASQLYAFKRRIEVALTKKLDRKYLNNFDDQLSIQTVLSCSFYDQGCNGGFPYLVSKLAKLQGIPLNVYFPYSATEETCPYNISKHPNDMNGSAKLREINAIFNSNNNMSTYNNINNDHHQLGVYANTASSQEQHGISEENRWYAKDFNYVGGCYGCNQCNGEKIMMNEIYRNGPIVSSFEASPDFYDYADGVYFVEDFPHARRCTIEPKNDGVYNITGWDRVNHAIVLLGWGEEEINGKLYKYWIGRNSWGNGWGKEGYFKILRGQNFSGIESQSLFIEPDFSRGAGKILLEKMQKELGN
row,SMILES,% Inhibition @ 10 uM
1,Cc1ccc(C)c(NC(=O)CCCC(=O)Nc2cc(C)ccc2C)c1,6.24%
2,COc1cc(C(=O)N2CCN(C(=O)c3cc(OC)c(OC)c(OC)c3)CC2)cc(OC)c1OC,-1.61%
3,COc1cc(CNc2nc[nH]n2)ccc1OCC(=O)NC1CCCCC1,2.48%
4,N#CC1=C(N)OC2=C(C(=O)CCC2)C1c1ccc(F)c(Br)c1 (centres unmarked),-3.13%
5,N#C/C(=C\c1c(Oc2ccccc2Cl)nc2ccccn2c1=O)C(=O)NCc1ccco1,-0.828%
6,CCCC(=O)NCCc1cc(OC)c(OC)cc1Br,-1.11%
7,Cc1cc(NCc2ccccc2)cc(=O)n1Cc1ccccc1,-0.0555%
8,CN1Cc2cccc3c2C(Cc2ccccc2S3)C1 (centres unmarked),3.05%
9,Cc1cc(C)cc(N2C(=O)C3C4C=CC(C5CC45)C3C2=O)c1 (centres unmarked),-3.78%
10,O=C(NCc1ccc2c(c1)OCO2)c1nnc(-c2cccc(Cl)c2)o1,5.37%
11,Cc1cccc(CN2CCC(CNC(=O)NCc3noc4ccccc34)CC2)c1,4.84%
12,COc1ccc(-c2nnc(-c3ccc4c(c3)OCO4)o2)cc1OC,7.87%
13,CCCCNC(=O)c1cc(S(=O)(=O)N2CCCCC2)ccc1F,1.42%
14,CCCCNC(=O)CNC(=O)CNC(=O)c1ccccc1 (HELM PEPTIDE1{[O=C(c1ccccc1)[*:2]].G.G.[CCCCN[*:1]]}$$$$V2.0),-0.598%
15,CCC(C(=O)NCc1cccc(Cl)c1)n1ccc2cc(S(=O)(=O)N3CCCCC3)ccc21 (centres unmarked),-2.68%
16,CC(CCc1ccco1)N(C)S(=O)(=O)c1csc(C(N)=O)c1 (centres unmarked),-2.5%
17,CC1CCN(CCCNC(=O)c2ccc(CS(=O)(=O)Cc3ccc(Cl)cc3)o2)CC1,3.93%
18,NCC(CC(=O)O)c1ccccc1 (centres unmarked),-0.597%
19,COc1cc(NC(C)CCCN)c2ncccc2c1Oc1cccc(Cl)c1 (centres unmarked),1.52%
20,c1ccc(N2CCN(c3nnc(Cc4cccnc4)c4ccccc34)CC2)nc1,-4.69%
21,Cn1c(CNc2ccc(Br)cc2)nc2ccccc21,1.72%
22,CCOC(=O)N1CCN(C(=O)CCc2nc(O)c3c4c(sc3n2)CCCC4)CC1,-0.228%
23,CCCCc1ccc(NC(=O)C2CCN(S(C)(=O)=O)CC2)cc1,-5.01%
24,CC(=O)N/C(=C\c1ccc(F)cc1)C(=O)OCc1ccccc1,-0.597%
25,Cc1ccc(C2CC(c3ccccc3OC(F)F)Nc3ncnn32)cc1 (centres unmarked),-1.48%

row,SMILES,% Inhibition @ 10 uM
1,COc1ccc(N(CC(=O)Nc2ccc(CC#N)cc2)S(=O)(=O)c2ccc(C)cc2)cc1,-1.95%
2,CCCCCCN1CC(=O)C(c2nc3cc(C)ccc3[nH]2)=C1N,3.74%
3,O=C(O)/C=C\C(=O)Nc1ccc(O)c(C(=O)O)c1,1.2%
4,CCC(CC)NCc1cccc([N+](=O)[O-])c1,-7.5%
5,CC(C)C[C@H](NC(=O)c1cn2c(n1)sc1ccccc12)C(=O)NCC#N,4.33%
6,NC(=O)c1ccc(NC(=O)c2ccccc2)cc1,-1.98%
7,COc1ccc(C2=CC(c3ccco3)n3ncnc3N2)cc1 (centres unmarked),-1.4%
8,CO/C(O)=C1\C(C)=NC2=C(C(=O)CCC2)C1c1cccc(F)c1 (centres unmarked),-5.44%
9,Cc1cccc(-c2cc(C(=O)NCc3ccc(S(N)(=O)=O)cc3)c3ccccc3n2)c1,0.431%
10,COc1cc(Br)cc(NC(=O)c2ccc([N+](=O)[O-])cc2)c1,-0.268%
11,COc1ccc(C2CC(c3ccc(C)cc3)=NN2C(=O)CCC(=O)O)cc1OC (centres unmarked),15.8%
12,O=S(=O)(NC1CCCCC1)c1ccc(S(=O)(=O)N(Cc2ccccc2)Cc2ccco2)cc1,-1.31%
13,N#CC1=C(N)N(c2c(F)cccc2F)C2=C(C(=O)CCC2)C1c1ccccc1 (centres unmarked),6.59%
14,Cc1nc2cccnc2n1-c1ccc(CC(=O)NCCC2=CCCCC2)cc1,2.63%
15,CCCN(Cc1cccc([N+](=O)[O-])c1)CC1CC1,-2.21%
16,O=C(c1ccc(NC(=O)C(F)(F)F)cc1)c1ccc(NC(=O)C(F)(F)F)cc1,2.33%
17,O=C(NCCC1=CCCCC1)c1ccc2c(c1)ncn2-c1cccc(F)c1,4.35%
18,CCN1C(=O)C(O)(CC(=O)c2ccccc2)c2ccccc21 (centres unmarked),20.9%
19,CN(C)CCCN(CCCN(C)C)Cc1ccc(F)cc1,-7.56%
20,COCCCNC(=O)Cn1ncc2c3ccccc3n(Cc3ccc(F)cc3)c2c1=O,-1.58%
21,Cc1nc2c(sc3nc4c(cc32)COC(C)(C)C4)c(=O)n1CC(C)C,4.78%
22,COc1ccc(COCC(O)CN2CCN(C)CC2)cc1OC (centres unmarked),4.23%
23,COc1ccc(-c2cc(C(=O)N3CCCN(Cc4ccc(F)cc4)C3)[nH]n2)cc1,-3.5%
24,CC(C)(C)c1ccc(C(=O)NCCN2CCCC2)cc1,4.78%
25,Brc1ccc(CN2CCN(c3ccccn3)CC2)o1,1.63%

# From paper PMC6919601, “Identification of Plasmodium dipeptidyl aminopeptidase allosteric inhibitors by high throughput screening” (PLoS ONE, 2019)
